Reference: the supplement of paper PMC12067093, “Discovery and optimisation of a covalent ligand for TRIM25 and its application to targeted protein ubiquitination” (Chemical Science, 2025)
About 21,000 targets were measured; listed, in parts, are those with the largest changes and a random draw of the rest.

Compound: Cc1cc(ccc1-c1ccccc1)C(=O)N1CCCN(CC1)C(=O)CCl [compound 10]
Test: probe-labelled cysteine peptide fold change vs DMSO (competition) (log2 fold change); higher = less target engagement (more negative = stronger competition)
Conditions: THP-1, incubation time: 4 h
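Note: competitive profiling in live THP-1 cells: cysteine peptides tagged with an iodoacetamide desthiobiotin (IA-DTB) probe, intensity after compound treatment relative to DMSO-treated cells.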

UniProt Q9H0X9, sequence (Q9H0X9 whole entry, looked up): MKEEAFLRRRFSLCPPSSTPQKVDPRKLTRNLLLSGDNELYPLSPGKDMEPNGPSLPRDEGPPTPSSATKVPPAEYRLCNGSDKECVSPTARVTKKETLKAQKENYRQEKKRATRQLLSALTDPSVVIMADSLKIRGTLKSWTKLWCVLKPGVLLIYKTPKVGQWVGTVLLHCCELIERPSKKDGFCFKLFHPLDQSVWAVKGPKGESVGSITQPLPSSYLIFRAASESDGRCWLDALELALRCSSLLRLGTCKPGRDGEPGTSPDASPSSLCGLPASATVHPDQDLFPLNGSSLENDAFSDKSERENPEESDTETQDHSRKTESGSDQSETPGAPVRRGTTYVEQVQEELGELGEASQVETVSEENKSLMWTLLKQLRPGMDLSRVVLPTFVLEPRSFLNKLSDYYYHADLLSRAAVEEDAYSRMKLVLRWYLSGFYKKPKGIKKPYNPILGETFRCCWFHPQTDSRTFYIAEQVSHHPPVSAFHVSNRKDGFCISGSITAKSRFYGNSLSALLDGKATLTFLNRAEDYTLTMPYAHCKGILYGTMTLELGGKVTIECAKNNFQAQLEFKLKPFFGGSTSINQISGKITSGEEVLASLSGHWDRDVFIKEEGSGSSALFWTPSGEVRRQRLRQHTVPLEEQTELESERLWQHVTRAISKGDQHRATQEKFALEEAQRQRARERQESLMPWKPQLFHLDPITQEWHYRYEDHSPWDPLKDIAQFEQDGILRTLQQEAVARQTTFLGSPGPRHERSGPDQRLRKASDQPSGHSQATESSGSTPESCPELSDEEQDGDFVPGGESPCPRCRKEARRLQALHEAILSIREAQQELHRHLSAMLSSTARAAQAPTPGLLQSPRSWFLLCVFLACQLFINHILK
UniProt Q9H0A0, sequence (Q9H0A0 whole entry, looked up): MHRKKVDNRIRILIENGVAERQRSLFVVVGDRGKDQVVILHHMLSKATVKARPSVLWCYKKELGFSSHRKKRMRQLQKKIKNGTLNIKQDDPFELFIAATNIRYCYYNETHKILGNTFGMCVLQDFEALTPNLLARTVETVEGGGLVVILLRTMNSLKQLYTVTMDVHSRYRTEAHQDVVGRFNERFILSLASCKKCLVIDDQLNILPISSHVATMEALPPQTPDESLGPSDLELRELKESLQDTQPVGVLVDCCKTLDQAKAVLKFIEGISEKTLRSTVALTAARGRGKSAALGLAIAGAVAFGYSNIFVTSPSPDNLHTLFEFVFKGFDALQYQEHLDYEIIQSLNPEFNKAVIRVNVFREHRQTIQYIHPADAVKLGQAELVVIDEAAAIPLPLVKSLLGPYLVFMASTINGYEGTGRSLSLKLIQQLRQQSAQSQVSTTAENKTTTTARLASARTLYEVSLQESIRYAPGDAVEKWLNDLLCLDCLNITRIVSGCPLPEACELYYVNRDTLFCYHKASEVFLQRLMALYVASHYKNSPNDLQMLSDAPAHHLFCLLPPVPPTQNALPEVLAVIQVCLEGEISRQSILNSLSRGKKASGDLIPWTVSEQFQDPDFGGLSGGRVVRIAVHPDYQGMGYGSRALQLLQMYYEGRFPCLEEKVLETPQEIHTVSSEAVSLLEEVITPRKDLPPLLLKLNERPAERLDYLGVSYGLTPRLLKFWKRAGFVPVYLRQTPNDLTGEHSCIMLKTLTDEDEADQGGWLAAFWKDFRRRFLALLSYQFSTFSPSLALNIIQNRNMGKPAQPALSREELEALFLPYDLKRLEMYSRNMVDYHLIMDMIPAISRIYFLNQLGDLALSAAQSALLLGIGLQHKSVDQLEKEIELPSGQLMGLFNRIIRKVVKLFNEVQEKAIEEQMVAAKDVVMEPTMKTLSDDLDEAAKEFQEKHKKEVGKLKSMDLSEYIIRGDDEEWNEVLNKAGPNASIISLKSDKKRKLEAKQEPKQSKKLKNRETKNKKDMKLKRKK
UniProt Q9Y314, sequence (Q9Y314 whole entry): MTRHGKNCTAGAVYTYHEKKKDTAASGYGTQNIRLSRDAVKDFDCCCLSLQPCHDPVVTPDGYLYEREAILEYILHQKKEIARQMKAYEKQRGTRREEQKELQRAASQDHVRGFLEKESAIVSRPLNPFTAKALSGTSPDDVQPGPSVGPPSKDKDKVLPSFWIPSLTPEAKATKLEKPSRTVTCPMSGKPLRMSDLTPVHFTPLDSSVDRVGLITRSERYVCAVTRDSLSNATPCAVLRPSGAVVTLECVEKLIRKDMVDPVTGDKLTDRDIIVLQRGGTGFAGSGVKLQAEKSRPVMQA
UniProt Q460N5, sequence (Q460N5 whole entry, looked up): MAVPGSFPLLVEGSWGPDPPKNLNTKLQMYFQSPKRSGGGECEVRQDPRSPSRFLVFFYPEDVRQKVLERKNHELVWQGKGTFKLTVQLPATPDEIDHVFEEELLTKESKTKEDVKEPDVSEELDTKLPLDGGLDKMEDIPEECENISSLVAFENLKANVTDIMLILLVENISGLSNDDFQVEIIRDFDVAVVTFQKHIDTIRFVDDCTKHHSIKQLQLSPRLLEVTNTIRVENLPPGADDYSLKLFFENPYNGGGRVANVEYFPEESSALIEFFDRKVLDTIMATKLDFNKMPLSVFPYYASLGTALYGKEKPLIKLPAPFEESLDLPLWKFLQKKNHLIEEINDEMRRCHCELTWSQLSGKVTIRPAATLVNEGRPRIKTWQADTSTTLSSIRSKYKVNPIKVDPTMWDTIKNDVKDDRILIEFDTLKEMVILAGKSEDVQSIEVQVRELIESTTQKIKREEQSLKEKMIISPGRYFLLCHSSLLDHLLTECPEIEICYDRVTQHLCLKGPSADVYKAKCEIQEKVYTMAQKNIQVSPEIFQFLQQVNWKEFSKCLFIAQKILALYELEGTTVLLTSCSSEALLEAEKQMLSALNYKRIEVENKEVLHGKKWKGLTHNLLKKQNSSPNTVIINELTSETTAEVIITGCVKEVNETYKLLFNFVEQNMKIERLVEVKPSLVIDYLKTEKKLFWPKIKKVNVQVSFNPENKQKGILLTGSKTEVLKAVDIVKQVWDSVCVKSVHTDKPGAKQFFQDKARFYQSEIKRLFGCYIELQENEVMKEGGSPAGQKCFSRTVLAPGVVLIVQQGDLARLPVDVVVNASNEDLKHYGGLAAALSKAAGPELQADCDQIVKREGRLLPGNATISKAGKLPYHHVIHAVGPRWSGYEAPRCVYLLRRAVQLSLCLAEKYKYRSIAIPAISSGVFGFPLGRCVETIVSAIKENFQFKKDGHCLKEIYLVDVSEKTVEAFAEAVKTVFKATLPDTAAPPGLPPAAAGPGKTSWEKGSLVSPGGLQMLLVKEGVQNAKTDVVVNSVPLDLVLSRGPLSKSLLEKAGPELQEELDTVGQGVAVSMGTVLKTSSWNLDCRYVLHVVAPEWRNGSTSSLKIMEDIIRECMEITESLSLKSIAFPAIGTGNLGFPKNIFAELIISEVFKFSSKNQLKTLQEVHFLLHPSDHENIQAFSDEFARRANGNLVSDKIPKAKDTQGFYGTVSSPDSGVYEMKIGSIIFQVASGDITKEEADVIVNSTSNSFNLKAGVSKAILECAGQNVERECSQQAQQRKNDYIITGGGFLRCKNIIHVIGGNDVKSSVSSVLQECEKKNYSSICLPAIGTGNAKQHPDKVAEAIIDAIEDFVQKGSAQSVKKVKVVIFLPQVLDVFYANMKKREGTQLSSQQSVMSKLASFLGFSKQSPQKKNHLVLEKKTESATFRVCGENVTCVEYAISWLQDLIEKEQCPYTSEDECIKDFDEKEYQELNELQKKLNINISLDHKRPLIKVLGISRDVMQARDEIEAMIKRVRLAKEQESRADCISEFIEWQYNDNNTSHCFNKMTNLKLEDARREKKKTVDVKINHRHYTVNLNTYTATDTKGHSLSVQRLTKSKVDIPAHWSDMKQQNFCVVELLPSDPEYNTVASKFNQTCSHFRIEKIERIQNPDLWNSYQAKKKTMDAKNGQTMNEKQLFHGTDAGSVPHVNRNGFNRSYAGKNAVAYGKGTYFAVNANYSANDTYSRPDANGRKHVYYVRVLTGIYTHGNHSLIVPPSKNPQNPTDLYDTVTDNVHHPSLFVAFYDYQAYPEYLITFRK
UniProt Q58A45, sequence (Q58A45 whole entry, looked up): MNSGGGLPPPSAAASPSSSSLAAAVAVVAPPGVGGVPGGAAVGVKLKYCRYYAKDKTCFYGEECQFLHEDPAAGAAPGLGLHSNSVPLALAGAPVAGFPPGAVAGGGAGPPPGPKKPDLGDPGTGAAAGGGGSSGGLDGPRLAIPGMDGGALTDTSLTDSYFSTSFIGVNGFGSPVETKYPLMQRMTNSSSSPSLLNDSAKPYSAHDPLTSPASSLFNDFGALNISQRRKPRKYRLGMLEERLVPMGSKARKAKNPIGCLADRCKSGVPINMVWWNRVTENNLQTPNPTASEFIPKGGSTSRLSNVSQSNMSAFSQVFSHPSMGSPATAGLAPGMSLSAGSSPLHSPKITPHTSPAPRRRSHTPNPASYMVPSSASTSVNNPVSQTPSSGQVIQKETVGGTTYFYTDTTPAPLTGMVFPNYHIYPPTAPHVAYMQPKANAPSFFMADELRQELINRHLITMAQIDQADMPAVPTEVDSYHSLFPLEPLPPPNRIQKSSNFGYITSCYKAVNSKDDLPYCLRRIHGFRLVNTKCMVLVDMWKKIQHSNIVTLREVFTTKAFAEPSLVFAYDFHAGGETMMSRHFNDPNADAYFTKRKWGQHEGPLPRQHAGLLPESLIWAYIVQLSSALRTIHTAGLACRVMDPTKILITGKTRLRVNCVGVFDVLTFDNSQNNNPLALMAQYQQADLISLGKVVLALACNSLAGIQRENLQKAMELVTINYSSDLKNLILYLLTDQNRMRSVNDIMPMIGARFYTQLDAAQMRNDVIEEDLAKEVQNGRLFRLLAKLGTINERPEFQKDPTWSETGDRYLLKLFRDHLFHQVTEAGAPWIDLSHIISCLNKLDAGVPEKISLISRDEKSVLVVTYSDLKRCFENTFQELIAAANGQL
UniProt P51970, sequence (P51970 whole entry, looked up): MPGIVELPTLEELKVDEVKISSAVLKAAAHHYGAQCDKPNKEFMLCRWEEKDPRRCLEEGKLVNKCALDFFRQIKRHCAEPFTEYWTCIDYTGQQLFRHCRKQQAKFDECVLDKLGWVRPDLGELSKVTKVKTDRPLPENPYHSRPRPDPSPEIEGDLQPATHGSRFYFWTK

Target	probe-labelled cysteine peptide fold change (10 µM)	probe-labelled cysteine peptide fold change (50 µM)
NMT2_O60551_251_KMVEINFLCVHK<|>NMT1_P30419_249_KMVEINFLCVHK (UniProt P30419+O60551)	-0.0324	-0.335
NOSIP_Q9Y314_185_TVTCPMSGKPLR (UniProt Q9Y314)	-0.00821	-1.11
NOC2L_Q9Y3T9_585_VQENSAYICSR (UniProt Q9Y3T9)	-0.398	-1.67
PARP14_Q460N5_1274_ECSQQAQQR (UniProt Q460N5)	-0.264	-0.217
NUP205_Q92621_237_QSLAESLFAWACQSPLGK (UniProt Q92621)	0.243	0.658
PAN3_Q58A45_838_DHLFHQVTEAGAPWIDLSHIISCLNK (UniProt Q58A45)	0.00674	0.439
NAA10_P41227_17+21_NARPEDLMNMQHCNLLCLPENYQMK (UniProt P41227)	-0.179	-0.636
NAT10_Q9H0A0_255_ESLQDTQPVGVLVDCCK (UniProt Q9H0A0)	0.232	-0.332
NCAPH_Q15003_418_TMCPLLSMKPGEYSYFSPR (UniProt Q15003)	-0.315	-1.3
NDUFA8_P51970_46_EFMLCR (UniProt P51970)	-0.135	0.173
OSBPL5_Q9H0X9_233_CWLDALELALR (UniProt Q9H0X9)	-0.0895	-1.08
NUP133_Q8WUM0_1037_QLNLSAMPVLTAPQLIGLYICEENRR (UniProt Q8WUM0)	-0.0647	-0.151
